Measured values published in PubChem BioAssay AID2451 (National Center for Advancing Translational Sciences (NCATS), 2010).
Out of some 290,000 compounds screened, about 2,100 (0.72%) were called active. This list was built around the results that the source calls inconclusive (neither active nor inactive); the mix of calls is not that of the screen. The call rests on the fitted dose curve; in most records, active means well fitted inhibition curve with a large enough effect; inconclusive means small, poorly fitted or top-dose-only effect, or effect the other way; inactive means flat fitted curve, though single readings scatter. A potency beside an inconclusive call is a rough fit, not a confirmed value.

Molecular target: Fructose-bisphosphate aldolase (Giardia intestinalis (strain ATCC 50803 / WB clone C6)) (UniProt A8B2U2)
Experiment: qHTS Assay for Inhibitors of Fructose-1,6-bisphosphate Aldolase from Giardia Lamblia; further: nearly all actives have a fitted effect of over 55% in size
Settings: purified Giardia FBPA; activity, negative = inhibition: at 59.6 µM (top of the series) unless noted
Summary of the method: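 Giardia FBPA (40 nM reagent) was preincubated 10 min at RT with compound (up to 57.5 uM final), then substrate plus GAPDH/TPI/NAD/arsenate coupling system with diaphorase/resazurin was added; resorufin fluorescence (525/598 nm) was read after 20 min.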
On the % scale 0 is the no-effect control and ±100 the full control effect; potency means the concentration at half of the fitted maximal effect; tags describe the fitted curve by direction and shape.

Chain of UniProt A8B2U2 (A8B2U2 whole entry, looked up): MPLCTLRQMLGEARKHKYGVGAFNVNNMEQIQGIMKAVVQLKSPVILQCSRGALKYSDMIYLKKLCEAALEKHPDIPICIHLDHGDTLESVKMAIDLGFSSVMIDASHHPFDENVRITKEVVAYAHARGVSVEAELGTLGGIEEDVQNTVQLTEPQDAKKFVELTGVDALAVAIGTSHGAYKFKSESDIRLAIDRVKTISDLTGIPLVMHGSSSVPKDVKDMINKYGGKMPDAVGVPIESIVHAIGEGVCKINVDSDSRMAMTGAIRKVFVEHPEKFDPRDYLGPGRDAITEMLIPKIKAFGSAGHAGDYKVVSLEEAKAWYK

`CCCCCC(=O)c1ccc(O)cc1O` was tested. Which “activity, negative = inhibition” value did it give?
The value was inactive: 10.9%.

`Cc1ccc(S(=O)(=O)Nc2nc(C)c(NC(=O)Nc3ccc(Cl)cc3Cl)s2)cc1` was tested. Which Potency did it give?
Its Potency is inconclusive: 31.5 µM [inhibitor, single point].

With `Cc1ccccc1OCCSCc1nc2ccccc2[nH]1` as the compound, how does the “activity, negative = inhibition” value read?
The value was inactive: -2.22%.

Which “activity, negative = inhibition” value does the source give for `CNS(=O)(=O)/C=C/c1ccccc1` here?
The value was inactive: 1.58%.

`CC(=O)Nc1nc2c(ncn2COCCOC(C)=O)c(=O)[nH]1` was tested. Which “activity, negative = inhibition” value did it give?
Its value is inactive: 4.25%.

How did the Potency turn out when `COc1cc2c(cc1OC)CN(Cc1cc(=O)n3cc(C)ccc3n1)CC2` was run?
Its Potency is inconclusive: 15.8 µM [inhibitor, partial curve].

`O=C(NC1CC1)C1=C[C@H](C2CCCCC2)C[C@H](OCCCCO)O1` was tested. Which “activity, negative = inhibition” value did it give?
The value was inactive: -0.495%.

`O=C(NCc1ccccc1)/C(=N\O)c1ccccc1` was tested. Which “activity, negative = inhibition” value did it give?
The value was inactive: 6.62%.

Which “activity, negative = inhibition” value does the source give for `N#Cc1cc2c(=O)n3ccccc3nc2n(-c2ccc(Cl)cc2)c1=O` here?
Its value is inactive: -0.0569%.

For `CCOc1ccc2nc(N3CCC(C(=O)NC4CCCCC4)CC3)sc2c1`, which “activity, negative = inhibition” value is on record?
Its value is inactive: 5.73%.

For `COc1ccc(OC)c(C2CC(=O)N3CN(c4ccccc4F)CSC3=C2C#N)c1` (configuration not stated), which Potency is on record?
The Potency was inconclusive: 44.6 µM [inhibitor, single point].

How did the Potency turn out when `COc1ccc(C(C)=O)c2c(O)cccc12` was run?
Its Potency is inconclusive: 7.06 µM [inhibitor, partial curve].

With `O=C(Nc1nnc(-c2cccs2)o1)c1cccc(Oc2ccccc2)c1` as the compound, how does the Potency read?
The Potency was inconclusive: 17.7 µM [activator, partial curve].

With `Cc1ccc(C(=O)NC(=S)NNC(=O)c2ccccc2O)cc1` as the compound, how does the Potency read?
Its Potency is inconclusive: 20 µM [activator, partial curve].

For `Cc1cccc(CN2CCC(C(=O)Nc3ccc(-n4nc(C)cc4C)cc3)CC2)n1`, which Potency is on record?
Its Potency is inconclusive: 17.8 µM [inhibitor, partial curve].

Which Potency does the source give for `O=C1C2CCCCN2C(=O)N1CCCN1CCN(c2ccc(F)cc2)CC1` (configuration not stated) here?
The Potency was inconclusive: 11.2 µM [inhibitor, partial curve].

`COc1ccccc1Nc1ccc2nonc2c1[N+](=O)[O-]` was tested. Which “activity, negative = inhibition” value did it give?
Its value is inactive: -12.1%.

`COc1ccc(C2NC3=C(CCCC3)C(C#N)(C#N)C2(C#N)C#N)cc1` (configuration not stated) was tested. Which Potency did it give?
The Potency was inconclusive: 6.29 µM [inhibitor, full curve].

How did the Potency turn out when `CCOc1ccc(C(O)(c2ccccc2OC)C(CN2CCCC2)c2ccccc2)cc1` (configuration not stated) was run?
The Potency was inconclusive: 28.2 µM [inhibitor, partial curve].

How did the Potency turn out when `Cc1onc(-c2ccccc2)c1C(=O)NC(=S)NNC(=O)c1ccc(O)cc1` was run?
Its Potency is inconclusive: 7.06 µM [activator, partial curve].

How did the Potency turn out when `COc1cccc(OC)c1C(=O)NC(=S)N1CCCCC1c1cccnc1` (configuration not stated) was run?
Its Potency is inconclusive: 28.2 µM [inhibitor, partial curve].

How did the Potency turn out when `COc1cc(OC)c(OC)cc1CNCCc1ccc(F)cc1` was run?
Its Potency is inconclusive: 22.4 µM [inhibitor, partial curve].

`COC1=C(OC)C(=O)C(CCCCCCCCCCO)=C(C)C1=O` was tested. Which Potency did it give?
Its Potency is active: 4.46 µM.

How did the “activity, negative = inhibition” value turn out when `CN(C)c1cc(-c2ccc(Cl)cc2)oc(=O)c1Cl` was run?
Its value is inactive: -13.2%.

How did the Potency turn out when `C/C(=N\NS(=O)(=O)c1ccccc1)c1cc(Cl)cc(Cl)c1O` was run?
Its Potency is inconclusive: 17.7 µM [activator, single point].

`CCCN1CC=C2C(C#N)=C(N)C(C#N)(C#N)C(c3cccc(OC)c3OC)C2C1` (configuration not stated) was tested. Which Potency did it give?
Its Potency is inconclusive: 28.2 µM [inhibitor, partial curve].

`CN(C)c1ccc(NC(=O)CC(NCc2ccccn2)C(=O)O)cc1` (configuration not stated) was tested. Which Potency did it give?
The Potency was inconclusive: 44.6 µM [inhibitor, single point].

With `COc1cccc(NC(=S)N(CCCN2CCCC2)Cc2cccn2Cc2ccc(Cl)cc2)c1` as the compound, how does the “activity, negative = inhibition” value read?
Its value is inactive: 0.117%.

For `CC1=C(C(=O)OC2CCCC2)C(c2ccc(C)o2)C2=C(CC(c3cccs3)CC2=O)N1` (configuration not stated), which “activity, negative = inhibition” value is on record?
The value was inactive: -4.36%.

Which Potency does the source give for `C/C(Cn1nnc([N+](=O)[O-])n1)=N\NC(=O)c1ccccc1Cl` here?
The Potency was inconclusive: 15.8 µM [inhibitor, partial curve].

For `Cc1ccc(S(=O)(=O)NC2=NCN(CC(=O)O)CN2)cc1`, which “activity, negative = inhibition” value is on record?
Its value is inactive: -3.55%.

With `NC(=O)c1ccc(-c2ccc(Br)cc2)o1` as the compound, how does the “activity, negative = inhibition” value read?
Its value is inactive: -1.32%.

For `Cc1ccccc1-c1ccc(C(=O)O)s1`, which Potency is on record?
The Potency was inconclusive: 44.6 µM [activator, single point].

How did the Potency turn out when `CCn1c(SCC(=O)N/N=C/C=C/c2ccco2)nnc1-c1ccc(OC)cc1` was run?
The Potency was inconclusive: 17.7 µM [inhibitor, single point].

`COc1ccc(CNC(=O)CN(Cc2ccccc2)C(=O)CCC(=O)Nc2nccs2)cc1` was tested. Which “activity, negative = inhibition” value did it give?
The value was inactive: 6.51%.

`CC(=O)n1cc(C(C[N+](=O)[O-])SCCN)c2ccccc21` (configuration not stated) was tested. Which Potency did it give?
Its Potency is inconclusive: 19.9 µM [inhibitor, single point].

How did the “activity, negative = inhibition” value turn out when `COC(=O)c1ccc(NC(=S)Nc2ccccn2)cc1` was run?
The value was inactive: 1.16%.

`Cc1cc(C)c(-c2cc(C(=O)Nc3c(C)n(C)n(-c4ccccc4)c3=O)[nH]n2)c(O)c1` was tested. Which “activity, negative = inhibition” value did it give?
Its value is inactive: 2.39%.

With `CCOc1ccc2nc(NC(=O)C3CCCN(S(=O)(=O)c4cccs4)C3)sc2c1` (configuration not stated) as the compound, how does the “activity, negative = inhibition” value read?
The value was inactive: -4.97%.

With `OC(COc1ccccc1F)CN1CCC(Cc2ccccc2)CC1` (configuration not stated) as the compound, how does the Potency read?
The Potency was inconclusive: 31.6 µM [inhibitor, single point].

`O=C(c1cccc2ccccc12)N1CCN(Cc2ccccc2F)CC1` was tested. Which Potency did it give?
Its Potency is inconclusive: 20 µM [inhibitor, partial curve].

With `CC(C)NC1=C(Cl)C(=O)c2ccccc2C1=O` as the compound, how does the Potency read?
Its Potency is inconclusive: 2.51 µM [inhibitor, full curve].

With `CC(C)Cn1c(N)c(C(=O)NCC2CCCO2)c2nc3ccccc3nc21` (configuration not stated) as the compound, how does the Potency read?
The Potency was inconclusive: 3.15 µM [inhibitor, full curve].

`O=c1c2ccccc2sn1-c1cc(S(=O)(=O)N2CCOCC2)ccc1N1CCCC1` was tested. Which Potency did it give?
The Potency was inconclusive: 6.29 µM [inhibitor, partial curve].

How did the Potency turn out when `CO[C@]1(NC(=O)CSCC#N)C(=O)N2C(C(=O)O)=C(CSc3nnnn3C)CS[C@H]21` was run?
Its Potency is inconclusive: 12.6 µM [inhibitor, partial curve].

`CC(C)C1=Nc2cccc3cccc(c23)N1` was tested. Which Potency did it give?
The Potency was inconclusive: 22.3 µM [inhibitor, single point].

Which activity, negative = inhibition does the source give for `C[C@@H]1O[C@H]2C3=C(C(=O)[C@H]4O[C@@H]4[C@H]3O)[C@@H]1[C@@H]1[C@@H](C)OC=C3[C@H](O)[C@H]4O[C@@H]4/C(=N\OCc4ccccc4)[C@]312` here?
The activity, negative = inhibition was inactive: -2.5% [at 12.9 µM].
